# Hit rate of the full screen: of about 200,000 compounds, about 4,500 (2.2%) were called active. The shares of active, inactive and inconclusive entries below differ from those in the screen. Calls follow the shape of the dose curve; as a rule, active = well fitted inhibition curve with a large enough effect; inconclusive = small, poorly fitted or top-dose-only effect, or effect the other way; inactive = flat fitted curve, though single readings scatter. A potency beside an inconclusive call is a rough fit, not a confirmed value.
# Target: Cruzipain (Trypanosoma cruzi) (UniProt P25779)
# Assay: qHTS Assay for Promiscuous and Specific Inhibitors of Cruzain (without detergent); also: nearly all actives have a fitted effect of over 40% in size;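 as to max response, negative = inhibition: plate controls were enzyme without inhibitor for no effect and buffer without enzyme for full effect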
# Conditions: purified cruzain, Z-FR-AMC fluorescence, no detergent
# Outline: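 Purified cruzain at 1.5 nM, pre-incubated 15 min with compound at room temperature in 100 mM sodium acetate pH 5.5, 5 mM DTT, 0.00005% Triton X-100. Reaction started with 2 uM Z-FR-AMC; AMC fluorescence increase over 60 s gives rate.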
# Potency is read from the fitted curve at half-maximal effect; tags tell the direction and shape of the fitted curve.
# Chain of UniProt P25779 (P25779 whole entry, looked up): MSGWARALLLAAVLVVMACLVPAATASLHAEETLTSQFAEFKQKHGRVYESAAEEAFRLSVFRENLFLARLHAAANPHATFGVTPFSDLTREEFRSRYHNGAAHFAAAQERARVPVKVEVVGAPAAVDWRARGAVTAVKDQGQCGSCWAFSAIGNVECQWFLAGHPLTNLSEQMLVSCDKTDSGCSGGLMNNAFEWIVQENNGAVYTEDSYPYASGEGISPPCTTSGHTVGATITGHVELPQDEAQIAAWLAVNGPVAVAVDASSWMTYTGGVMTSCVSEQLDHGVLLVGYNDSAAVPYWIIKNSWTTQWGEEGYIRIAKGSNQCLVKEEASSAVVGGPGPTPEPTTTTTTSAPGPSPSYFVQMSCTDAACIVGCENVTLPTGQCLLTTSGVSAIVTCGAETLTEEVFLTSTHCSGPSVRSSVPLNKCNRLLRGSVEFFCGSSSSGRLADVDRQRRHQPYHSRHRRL
SMILES,Potency,"max response, negative = inhibition"
CC12CCC3c4ccc(OCc5ccccc5)cc4CCC3C1CC(O)C2O (configuration not stated),"inconclusive: 31.6 µM [activator, single point]",–
CCCCn1c(SCc2nc(N)nc(Nc3ccccc3C)n2)nc2ccccc2c1=O,"inconclusive: 31.6 µM [inhibitor, single point]",–
Cc1ccc(CNc2oc(-c3ccco3)nc2S(=O)(=O)c2ccccc2)cc1,active: 31.6 µM,–
CN(C)c1nc(C#N)nc(N2CCOCC2)n1,active: 3.16 µM,–
Nc1ccc(S(=O)(=O)Nc2ccccn2)cc1,"inconclusive: 2.51 µM [activator, partial curve]",–
COc1cc(C(=O)O/N=C2\C=CC(=O)C=C2C)cc(OC)c1OC,–,inactive: 5.26%
Brc1ccc(-c2ncc(-c3ccccc3)cn2)cc1,"inconclusive: 1 µM [inhibitor, full curve, poor fit]",–
CCOCCCNC(=O)/C(C#N)=C/c1ccc(-c2ccc(S(=O)(=O)N3CCOCC3)cc2)o1,"inconclusive: 39.8 µM [activator, single point]",–
COc1cccc(CNC(=O)CCc2nnc3n(C)c(=O)c4sccc4n23)c1,–,inactive: -11.6%
CCC1CCc2c(sc3nc(SCC(=O)NCc4ccco4)n(-c4ccccc4)c(=O)c23)C1 (configuration not stated),"inconclusive: 39.8 µM [inhibitor, single point]",–
O=C(Nc1cccc(NC(=O)N2CCN(c3ccccc3)CC2)c1)N1CCN(c2ccccc2)CC1,"inconclusive: 25.1 µM [inhibitor, single point]",–
Cc1ccc(-c2nc(N)sc2CC(=O)OCC(=O)NC2CCCC(C)C2C)cc1 (configuration not stated),"inconclusive: 25.1 µM [inhibitor, single point]",–
O=C(CCN1CCC(c2ccccc2)C1)c1ccc2c(c1)OCCO2 (configuration not stated),"inconclusive: 31.6 µM [inhibitor, partial curve]",–
Cc1ccc(Cl)cc1N1CCN(C(=O)c2cc(S(=O)(=O)N3CCC(C)CC3)cn2C)CC1,"inconclusive: 39.8 µM [activator, single point]",–
O=C(Nc1ccccc1)/C(=C/c1ccccc1)c1ccccc1,active: 12.6 µM,–
CCc1nnc(NC(=O)CCC(=O)NC2CCCc3ccccc32)s1 (configuration not stated),"inconclusive: 25.1 µM [inhibitor, single point]",–
O=C(Nc1nc(-c2cccs2)cs1)c1cccc(S(=O)(=O)N2CCCCC2)c1,"inconclusive: 31.6 µM [inhibitor, single point]",–
COc1ccc(CNC(=O)Cn2ccc3cc(S(=O)(=O)N4CCCCCC4)ccc32)cc1OC,"inconclusive: 39.8 µM [activator, single point]",–
COc1cccc(-c2cn3c(n2)sc2cc(C(=O)NCc4cccs4)ccc23)c1,–,inactive: -0.384%
CCCn1c(=O)c(C(=O)NNS(=O)(=O)c2ccc(C)cc2)c(O)c2ccccc21,active: 12.6 µM,–
CSc1ccc(/C=C(/NC(=O)c2ccc(C)cc2)C(=O)Nc2cccc(F)c2)cc1,active: 20 µM,–

SMILES,Potency,"max response, negative = inhibition"
Cc1ccc(C(=O)c2oc3ccccc3c2NC(=O)c2cc(=O)c3ccccc3o2)cc1,–,inactive: -3.19%
Cc1cccc(NC(=O)c2cc(=O)c3ccccc3o2)n1,–,inactive: 8.9%
C=CCN1C(=O)c2ccccc2Sc2ccc(C(=O)N3CCC4(CC3)OCCO4)cc21,"inconclusive: 31.6 µM [activator, single point]",–
Cc1cc(C)cc(OCC(=O)Nc2ccc(N3CCCC3)cc2)c1,active: 3.98 µM,–
CCOC(=O)Nc1ccc2c(CN3CCN(S(=O)(=O)c4ccccc4)CC3)cc(=O)oc2c1,active: 12.6 µM,–
Oc1cccc(C(Nc2ccccn2)c2ccc3cccnc3c2O)c1Cl (configuration not stated),"inconclusive: 39.8 µM [inhibitor, single point]",–
O=C(Nc1cc(Sc2nc3ccccc3s2)cc([N+](=O)[O-])c1)c1cccc(F)c1F,"inconclusive: 31.6 µM [inhibitor, single point]",–
CCOCCCNC(=O)C(c1ccc(OC)cc1)N(Cc1cccs1)C(=O)c1ccc(NC(C)=O)cc1 (configuration not stated),"inconclusive: 31.6 µM [activator, single point]",–
COc1ccc(N2CCN(c3nc(Cl)nc(N4CCOCC4)n3)CC2)cc1,"inconclusive: 39.8 µM [activator, single point]",–
COc1ccc(C2CC(c3cccs3)=NN2c2nc(-c3ccccc3)cs2)cc1OC (configuration not stated),active: 7.94 µM,–
C=COCCNC(=O)Nc1ccc(Cl)c(Cl)c1,"inconclusive: 7.94 µM [inhibitor, partial curve, poor fit]",–
CCc1ccc(OC(=O)CSc2nnc(-c3ccc4c(c3)OCO4)o2)cc1,–,inactive: 8.28%
Cc1ccc(NC(=O)C(=O)NCC(c2cccnc2)N2CCOCC2)cc1C (configuration not stated),"inconclusive: 39.8 µM [activator, single point]",–
CCc1cccc(CC)c1N(COC)C(=O)Cn1c(C(C)O)nc2ccccc21 (configuration not stated),"inconclusive: 31.6 µM [activator, single point]",–
N#Cc1ccc(N2Cc3ccccc3C2=NC(=O)c2cccs2)cc1,"inconclusive: 0.126 µM [activator, single point]",–
COc1cc(-c2nc(-c3cccc(C)c3)no2)cc(OC)c1OC,"inconclusive: 39.8 µM [activator, partial curve]",–
COCc1cc(=O)[nH]c(Sc2c(-c3ccccc3)c3ccc(Cl)cc3[nH]c2=O)n1,"inconclusive: 39.8 µM [activator, single point]",–
CCCCn1c(SCC(=O)Nc2nnc(C(C)C)s2)nc2c1c(=O)n(C)c(=O)n2C,"inconclusive: 31.6 µM [activator, single point]",–
CSCCC(NC(=O)c1cccc([N+](=O)[O-])c1)c1nc2ccccc2[nH]1 (configuration not stated),"inconclusive: 39.8 µM [inhibitor, single point]",–
C[N+](C)(C)[C@H](Cc1c[nH]c(=S)[nH]1)C(=O)O,–,inactive: 7.61%
CCC(c1nnnn1CS(=O)(=O)c1ccc(C)cc1)N1CCN(c2nc3ccccc3s2)CC1 (configuration not stated),"inconclusive: 31.6 µM [inhibitor, single point]",–

# Reference: PubChem BioAssay AID1476 (National Center for Advancing Translational Sciences (NCATS), 2009)
